Data on one substance can be found in article PMC3424240.

Protein sequences, listed by entry. Tags and fused reporters are not part of them.
UniProt Q9UPS6: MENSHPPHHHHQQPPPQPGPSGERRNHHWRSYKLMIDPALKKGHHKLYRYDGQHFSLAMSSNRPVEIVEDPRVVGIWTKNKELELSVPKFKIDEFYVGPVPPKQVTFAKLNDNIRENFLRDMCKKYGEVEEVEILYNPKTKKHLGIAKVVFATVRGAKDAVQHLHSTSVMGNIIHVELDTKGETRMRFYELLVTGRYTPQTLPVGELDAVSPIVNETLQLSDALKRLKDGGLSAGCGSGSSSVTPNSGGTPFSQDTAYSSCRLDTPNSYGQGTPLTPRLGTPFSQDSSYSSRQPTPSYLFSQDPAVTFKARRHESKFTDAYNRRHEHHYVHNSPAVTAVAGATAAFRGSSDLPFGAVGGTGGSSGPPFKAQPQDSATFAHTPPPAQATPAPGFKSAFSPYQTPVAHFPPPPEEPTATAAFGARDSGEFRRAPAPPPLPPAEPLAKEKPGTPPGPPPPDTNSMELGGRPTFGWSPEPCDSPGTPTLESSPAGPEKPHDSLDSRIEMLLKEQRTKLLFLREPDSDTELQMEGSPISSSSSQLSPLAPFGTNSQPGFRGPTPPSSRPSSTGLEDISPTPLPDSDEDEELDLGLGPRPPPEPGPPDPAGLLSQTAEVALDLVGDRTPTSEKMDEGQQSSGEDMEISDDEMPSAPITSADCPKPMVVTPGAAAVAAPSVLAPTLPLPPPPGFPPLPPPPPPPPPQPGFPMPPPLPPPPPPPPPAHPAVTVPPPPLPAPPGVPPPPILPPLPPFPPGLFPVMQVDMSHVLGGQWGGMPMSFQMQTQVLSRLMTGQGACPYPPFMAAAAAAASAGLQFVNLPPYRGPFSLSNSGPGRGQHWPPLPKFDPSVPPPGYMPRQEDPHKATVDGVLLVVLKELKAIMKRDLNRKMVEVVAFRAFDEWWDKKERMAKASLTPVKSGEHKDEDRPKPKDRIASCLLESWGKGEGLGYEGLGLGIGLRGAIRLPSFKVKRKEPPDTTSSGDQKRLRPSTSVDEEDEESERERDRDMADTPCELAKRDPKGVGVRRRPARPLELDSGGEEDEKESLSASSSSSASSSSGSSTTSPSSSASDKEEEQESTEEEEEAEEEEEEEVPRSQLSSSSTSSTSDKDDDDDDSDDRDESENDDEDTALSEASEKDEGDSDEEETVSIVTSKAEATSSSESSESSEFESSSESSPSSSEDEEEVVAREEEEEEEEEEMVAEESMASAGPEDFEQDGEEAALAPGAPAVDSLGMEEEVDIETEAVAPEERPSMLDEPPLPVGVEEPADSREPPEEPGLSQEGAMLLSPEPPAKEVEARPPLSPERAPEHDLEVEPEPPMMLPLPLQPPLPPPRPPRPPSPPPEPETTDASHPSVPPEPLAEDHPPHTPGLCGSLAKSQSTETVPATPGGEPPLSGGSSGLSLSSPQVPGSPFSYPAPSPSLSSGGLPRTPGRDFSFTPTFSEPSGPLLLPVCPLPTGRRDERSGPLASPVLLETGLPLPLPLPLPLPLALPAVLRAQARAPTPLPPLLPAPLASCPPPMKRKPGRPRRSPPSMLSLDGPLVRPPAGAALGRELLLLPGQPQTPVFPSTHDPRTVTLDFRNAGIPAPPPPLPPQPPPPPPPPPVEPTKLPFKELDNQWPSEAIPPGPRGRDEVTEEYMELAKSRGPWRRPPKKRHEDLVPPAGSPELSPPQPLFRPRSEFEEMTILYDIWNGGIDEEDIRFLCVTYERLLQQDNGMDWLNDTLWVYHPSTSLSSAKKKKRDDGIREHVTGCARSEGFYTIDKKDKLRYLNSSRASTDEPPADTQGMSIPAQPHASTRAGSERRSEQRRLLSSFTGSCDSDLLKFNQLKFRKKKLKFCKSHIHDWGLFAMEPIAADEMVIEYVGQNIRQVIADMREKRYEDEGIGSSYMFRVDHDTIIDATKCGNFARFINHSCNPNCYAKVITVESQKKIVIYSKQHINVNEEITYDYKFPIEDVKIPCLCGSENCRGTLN

These are yes or no findings as the source states them, for the method shown. Binding seen in cells or lysates may run through a third protein. Some entries that bind do so weakly or less than the wild type. For some of these results: Tags and fused reporters may be left off the sequences shown.

For assay [1], the target named is T1, FLAG-Rbm15 (human) (UniProt Q96T37).
T1 sequence: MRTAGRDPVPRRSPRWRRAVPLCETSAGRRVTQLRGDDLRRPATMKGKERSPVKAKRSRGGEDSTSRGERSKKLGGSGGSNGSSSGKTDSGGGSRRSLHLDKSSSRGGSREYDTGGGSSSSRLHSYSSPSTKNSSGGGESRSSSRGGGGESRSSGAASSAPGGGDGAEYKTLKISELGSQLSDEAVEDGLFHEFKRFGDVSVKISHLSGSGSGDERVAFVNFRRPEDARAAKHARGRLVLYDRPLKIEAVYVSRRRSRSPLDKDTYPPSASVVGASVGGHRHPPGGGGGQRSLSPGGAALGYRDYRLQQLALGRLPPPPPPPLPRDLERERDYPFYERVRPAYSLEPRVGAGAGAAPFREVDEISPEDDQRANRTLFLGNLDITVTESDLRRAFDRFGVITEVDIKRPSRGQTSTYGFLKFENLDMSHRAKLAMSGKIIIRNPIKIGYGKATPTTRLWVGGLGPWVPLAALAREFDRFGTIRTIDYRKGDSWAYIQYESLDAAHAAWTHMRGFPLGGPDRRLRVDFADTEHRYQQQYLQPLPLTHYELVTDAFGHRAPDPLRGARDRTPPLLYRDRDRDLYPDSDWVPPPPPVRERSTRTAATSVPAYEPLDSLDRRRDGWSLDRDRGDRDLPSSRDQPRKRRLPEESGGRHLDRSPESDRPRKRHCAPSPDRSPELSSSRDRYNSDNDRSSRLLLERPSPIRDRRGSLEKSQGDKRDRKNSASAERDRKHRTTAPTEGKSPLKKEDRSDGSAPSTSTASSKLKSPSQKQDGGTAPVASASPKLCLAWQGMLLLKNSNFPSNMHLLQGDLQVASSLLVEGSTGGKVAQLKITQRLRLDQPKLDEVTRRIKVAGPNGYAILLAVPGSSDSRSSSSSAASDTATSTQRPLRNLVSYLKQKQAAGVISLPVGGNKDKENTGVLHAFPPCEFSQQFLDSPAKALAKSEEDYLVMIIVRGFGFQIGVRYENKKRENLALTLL
Put plainly: co-IP; FLAG immunoprecipitation from nuclear extracts of transiently transfected HEK293 cells, Western blotting for endogenous partners.

Assay [2] addresses T2, FLAG-Rbm15 508 to 929 aa fragment (human) (UniProt Q96T37).
T2 sequence: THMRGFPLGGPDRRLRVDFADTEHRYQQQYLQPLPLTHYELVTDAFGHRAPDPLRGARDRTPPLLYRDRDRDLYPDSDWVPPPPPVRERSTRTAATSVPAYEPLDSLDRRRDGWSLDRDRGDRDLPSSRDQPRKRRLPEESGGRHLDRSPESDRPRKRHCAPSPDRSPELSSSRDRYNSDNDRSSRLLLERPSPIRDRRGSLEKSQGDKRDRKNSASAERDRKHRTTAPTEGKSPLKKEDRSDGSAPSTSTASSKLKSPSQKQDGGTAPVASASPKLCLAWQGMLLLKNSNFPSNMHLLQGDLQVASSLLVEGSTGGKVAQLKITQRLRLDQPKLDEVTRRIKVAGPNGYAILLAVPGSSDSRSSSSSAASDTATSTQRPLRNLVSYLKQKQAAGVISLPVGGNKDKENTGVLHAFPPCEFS
Put plainly: co-IP; FLAG immunoprecipitation from whole cell extracts of transiently transfected HEK293 cells, Western blotting for endogenous partners.

Assay [3] has as its target T3, FLAG-Rbm15 fragment aa 782 to 977 (human) (UniProt Q96T37).
T3 sequence: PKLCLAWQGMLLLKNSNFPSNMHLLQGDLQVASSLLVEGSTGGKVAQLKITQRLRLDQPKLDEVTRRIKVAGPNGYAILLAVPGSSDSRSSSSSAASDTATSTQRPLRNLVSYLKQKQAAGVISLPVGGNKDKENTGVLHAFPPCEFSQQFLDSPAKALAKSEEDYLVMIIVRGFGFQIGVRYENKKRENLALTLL
The assay is described as above.

Assay [4] concerns the target T4, endogenous Rbm15 (human (endogenous in HEK293)) (UniProt Q96T37).
T4 sequence: T1 sequence
Put plainly: co-IP; immunoprecipitation with antisera against Setd1b or Rbm15 from nuclear extracts of HEK293 cells (endogenous proteins), Western blotting.

A further assay has as its target T5, FLAG-Mkl1 (human) (UniProt Q969V6).
T5 sequence: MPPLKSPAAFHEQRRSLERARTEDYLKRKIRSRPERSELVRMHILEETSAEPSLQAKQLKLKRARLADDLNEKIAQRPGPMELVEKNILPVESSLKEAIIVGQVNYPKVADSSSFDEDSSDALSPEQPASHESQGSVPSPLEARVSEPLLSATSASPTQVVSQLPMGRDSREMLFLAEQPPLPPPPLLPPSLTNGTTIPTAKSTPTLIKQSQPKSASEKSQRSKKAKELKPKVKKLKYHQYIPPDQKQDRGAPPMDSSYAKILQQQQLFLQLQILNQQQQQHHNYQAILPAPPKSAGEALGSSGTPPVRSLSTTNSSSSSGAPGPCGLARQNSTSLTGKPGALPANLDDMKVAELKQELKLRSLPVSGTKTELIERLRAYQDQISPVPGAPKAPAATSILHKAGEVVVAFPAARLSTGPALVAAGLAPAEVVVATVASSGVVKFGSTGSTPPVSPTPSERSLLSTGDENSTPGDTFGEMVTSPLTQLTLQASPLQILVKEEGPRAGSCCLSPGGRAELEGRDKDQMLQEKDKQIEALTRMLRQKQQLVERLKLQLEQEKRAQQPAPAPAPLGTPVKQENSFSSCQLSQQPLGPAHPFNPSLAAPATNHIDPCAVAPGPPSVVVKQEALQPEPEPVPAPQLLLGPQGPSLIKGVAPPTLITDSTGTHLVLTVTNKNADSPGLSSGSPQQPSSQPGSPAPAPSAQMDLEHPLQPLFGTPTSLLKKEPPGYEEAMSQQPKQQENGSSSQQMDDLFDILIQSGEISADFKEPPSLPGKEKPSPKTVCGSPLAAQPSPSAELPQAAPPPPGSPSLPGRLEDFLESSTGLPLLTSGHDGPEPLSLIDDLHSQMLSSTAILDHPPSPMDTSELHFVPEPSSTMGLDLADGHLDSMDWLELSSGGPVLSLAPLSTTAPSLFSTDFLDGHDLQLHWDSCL
Put plainly: co-IP; FLAG immunoprecipitation (FLAG-IgG agarose) from nuclear extracts of inducible T-REx HEK293 stable lines, Western blotting for endogenous partners.

The target of assay [5] is T1, FLAG-Rbm15 (human). The assay is described as above.
Assay [6] has as its target T1, FLAG-Rbm15 (human). Put plainly: co-IP; FLAG immunoprecipitation from whole cell extracts of T-REx HEK293 lines induced with 1 µg/ml doxycycline for three days, in the presence or absence of RNase A (50 ug/ml, 15 min, 37°C).

Regarding “endogenous Setd1b (from UniProt Q9UPS6 1-1966)”, the binding entry with FLAG-Rbm15 (human) [1] is on record as “binds”; in assay [2] it was “no binding”; in assay [3], “binds”; in assay [4] it was “binds”; with FLAG-Mkl1 (human) it was “no binding”; in the assay with FLAG-Rbm15 (human) [5], “binds”. In addition, in the assay with FLAG-Rbm15 (human) [6], the binding entry is “binds”.
